Results taken from PubChem BioAssay (NCI).
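Results reflect a 48-hour exposure of cells in 96-well plates to compound at five concentrations. GI50: concentration for 50% inhibition of growth. Definition used: TGI = concentration required for complete inhibition of growth.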 The source made the active and inactive calls. Cut-off read from the data, not from the text of the source: active = GI50 below about 0.43 µM; inactive = the rest. Square brackets hold non-standard residues; d marks the D form. Peptide text beside a SMILES is read from it. * marks the point of attachment. Phe(4-NO2) = N[CH](Cc1ccc([N+](=O)[O-])cc1)C(=O)O; Boc = CC(C)(C)OC(=O)*; OtBu = CC(C)(C)O*

Tested on: NCI-H322M lung
Assay: NCI-60 cell line screen, 48 h

In the case of Oc1c(-c2ccccc2)nc2ccccn12, the TGI is reported as over 100 µM.
With O=C(O)c1c(-c2ccccc2)c(=O)[nH]c2ccccc12 the TGI was over 100 µM.
In the case of CC1CC2=C(C1)C(C1(C)C(=O)CC3C(C1=O)C3(C)C)C(C)C2=O (stereo unspecified), the TGI is reported as over 100 µM.
Compound Clc1ccc(N2CCN(CCCN3CCN(c4cccc(Cl)c4)CC3)CC2)cc1 has a GI50 of 12.1 µM and a TGI of 33.6 µM.
Work on C=C(CN(C)C)C(=O)c1ccc(OC2OC(COC(C)=O)C(OC(C)=O)C(OC(C)=O)C2OC(C)=O)cc1 (stereo unspecified) yielded a TGI of 32.6 µM.
Work on O=C1C(=C/C=C2/SC(c3ccccc3)(c3ccccc3)c3ccccc32)C(=O)c2ccccc21 yielded a TGI of over 100 µM.
O=S(=O)(O)c1cc(N=Nc2c(O)ccc3ccccc23)c2c(S(=O)(=O)O)cccc2c1 showed a TGI of over 100 µM.
Compound Cc1cnc(Cl)nc1C(C#N)c1nc2ccccc2s1 (stereo unspecified) has a TGI of 65.6 µM.
For COc1ccc2nc3c([N+](=O)[O-])ccc4c3c(c2c1)N(CCCN(C)C)C(=S)N4CCCN(C)C, the TGI was 19.4 µM.
O=C(/C=C(\N=P(c1ccccc1)(c1ccccc1)c1ccccc1)C(F)(F)C(F)(F)C(F)(F)C(F)(F)C(F)(F)C(F)(F)C(F)(F)F)c1ccccc1 gave a TGI of over 100 µM.
With CC(=O)NC(CCC(=O)OC(C)(C)C)C(=O)NC(CCC(=O)OC(C)(C)C)C(=O)NC(Cc1ccc([N+](=O)[O-])cc1)C(=O)NC(CCCCNC(=O)OC(C)(C)C)C(=O)NC(CCCCNC(=O)OC(C)(C)C)C(=O)NCC(=O)O (stereo unspecified) (Ac-E(OtBu)E(OtBu)[Phe(4-NO2)]K(Boc)K(Boc)G-OH; configuration not given here) the TGI was over 100 µM.
Compound N/C(=N/N=C/c1cc(Br)cc(Br)c1O)NO has a TGI of 26.8 µM.
For CCOC(=O)c1ccc2[nH]c(O)c(C(=Nc3ccc(N(C)C(=O)CN4CCN(C)CC4)cc3)c3ccccc3)c2c1, the GI50 was 1.44 µM and the TGI was 4.14 µM.
O=c1c2c([nH]c3cc4c(cc13)OCO4)-c1ccccc1C2 was tested, and the TGI was over 100 µM.
Compound O=CC1C(Cl)=Nc2nc3ccccc3n2C1c1ccc([N+](=O)[O-])cc1 (stereo unspecified) has a TGI of 44.4 µM.
CCOC(=O)c1nc2cc(C(F)(F)F)ccc2nc1Nc1ccc(OC)c(OC)c1 gave a TGI of over 100 µM.
In the case of CC(C)(C)c1ccc2c(c1)C(O)(c1ccccc1)c1cc(C(C)(C)C)ccc1C2(O)C(F)(F)F (stereo unspecified), the TGI is reported as 5.34 µM.
O=C(c1ccc(Cl)c(Cl)c1)N(Cc1cccnc1)C(=S)N(Cc1cccnc1)C(=O)c1ccc(Cl)c(Cl)c1 showed a TGI of 83.1 µM.
In the case of CCOc1ccc(NC(=O)C(=O)C2C(=O)Nc3ccccc3S2=O)cc1 (stereo unspecified), the TGI is reported as over 100 µM.
Compound NCCCCCCn1c2c(c3ccccc3c1=O)C(=O)c1ccccc1-2 has a GI50 of 4.11 µM and a TGI of 17.5 µM.
Cc1cc(C)c(C2CC(O)C(CO)O2)cc1C (stereo unspecified) showed a TGI of over 100 µM.
CC(C)=CCC/C(C)=C\CC/C(C)=C/CO gave a TGI of over 100 µM.
CCOC(=O)C1C(=O)CC(O)(c2ccccc2)C(C(=O)OCC)C1c1ccc(N(C)C)cc1 (stereo unspecified) was tested, and the TGI was over 100 µM.
With COc1cc(C2c3cc4c(cc3CC3COC(=O)N32)OCO4)cc(OC)c1OC (stereo unspecified) the TGI was over 100 µM.
N#C/C(=C/c1ccco1)C(=O)c1ccccc1 gave a TGI of over 100 µM.
For CC1=C(C)C(=O)C2=C(OCCO2)C1=O, the TGI was 31.8 µM.
CCOC(=O)C1=C(N)CCC1C (stereo unspecified) was tested, and the GI50 was over 100 µM and the TGI was over 100 µM.
With COc1ccc(-c2nc3ccccc3c(=O)[nH]2)c(OC)c1 the TGI was over 100 µM.
CCCCCC(/C=C/C1CCC(=O)C1)OCOCCOC (stereo unspecified) showed a TGI of over 100 µM.
In the case of CNN1C(=O)c2c(N)c(C#N)c(-c3ccccc3)c(-c3ccccc3)c2C1=O, the TGI is reported as over 100 µM.
O=c1cc(-c2ccc(O)c(O)c2-c2c(O)cc3oc(-c4ccc(O)c(O)c4)cc(=O)c3c2O)oc2cc(O)cc(O)c12 was tested, and the outcome was “inactive”.
With CCN(CC)CCNC(=O)c1cn2ncnc(Oc3ccc(NC(=O)Nc4ccc(Cl)c(C(F)(F)F)c4)cc3)c2c1C the GI50 was 1.58 µM and the TGI was 2.94 µM.
For C=C1C[C@@H](O)[C@@H](Br)C(C)(C)[C@@]12C=CC(O)(CBr)CC2 (stereo partly specified), the TGI was over 100 µM.
With Cn1c(=O)c2c3ccccc3c(C(=O)c3ccccc3)n2c2ccccc21 the TGI was over 100 µM.
Work on CCOc1ccc(N=NC2C(=O)N(C(=O)CC(=O)Nc3ccc(C)cc3)N=C2C)cc1 (stereo unspecified) yielded a TGI of over 100 µM.
For O=C(Nc1ccccc1)c1cc(S(=O)(=O)Nc2nc3ncccc3[nH]2)c(SSc2cc(Cl)c(C(=O)Nc3ccccc3)cc2S(=O)(=O)Nc2nc3ncccc3[nH]2)cc1Cl, the TGI was over 100 µM.
Compound O=C(Nc1nc2ncn(CCNCCn3cnc4nc(NC(=O)c5ccccc5)[nH]c(=O)c43)c2c(=O)[nH]1)c1ccccc1 has a TGI of over 100 µM.
Work on Cc1c(Cl)ccc2c1NC(=O)C2(O)CC(=O)c1ccc2ccccc2c1 (stereo unspecified) yielded a TGI of over 100 µM.
Work on CCCN1C(=O)/C(=C/c2cccc(O)c2)SC1=Nc1ccc(OC)cc1 yielded a GI50 of 3.64 µM and a TGI of 10.7 µM.
With CC(C)(C)c1cc(Cc2ccc([N+](C)(C)C)cc2)c(O)c(C(C)(C)C)c1 the TGI was 46.2 µM.
Compound S=c1[nH]n2c(Cc3ccccc3)nnc2s1 has a TGI of over 100 µM.
In the case of CCCCCCCCCCCc1noc2c1C(=O)C(O)CC2 (stereo unspecified), the TGI is reported as over 100 µM.
CC(C)=CCC/C(C)=C/CC/C(C)=C/CCN(C)CCO gave a TGI of 23.8 µM.
Compound O=C(O[C@H]1CN[C@H](C#Cc2cc3ncnc(Nc4ccc5c(cnn5Cc5ccccc5)c4)c3s2)C1)N1CCOCC1 has a GI50 of 0.35 µM and a TGI of over 10.8 µM.
In the case of CNC(=S)N/N=C(\C)c1cc(OC)ccc1O, the TGI is reported as over 100 µM.
In the case of CCOC(=O)C(NC(=O)CC)(Nc1ccc(S(=O)(=O)Nc2ncccn2)cc1)C(F)(F)F (stereo unspecified), the TGI is reported as over 100 µM.
C=CS(=O)(=O)c1c2cc(OC)ccc2nc2ccc(OC)cc12 gave a TGI of 29.1 µM.
With O=c1c2c3c(sc2nc(CN2CCNCC2)n1-c1ccccc1)CCCC3 the TGI was over 100 µM.
COc1ccc2c(c1)CN1C(=N2)CSC1c1c(Cl)cccc1[N+](=O)[O-] (stereo unspecified) was tested, and the TGI was over 100 µM.
